Substitutions are numbered along the chain they refer to. Numbers in names are those of the source. ± gives the standard deviation of the averaged measurements. Laboratory Escherichia coli strains with one amino-acid change in an essential protein, pooled on minimal glucose agar with carbenicillin or gentamicin at twice the control MIC (plus kanamycin and chloramphenicol for the plasmids), 48 h. Fold change of barcode share against drug-free plates; higher = less susceptible. Active = above 20 in both replicates (the paper's putatively resistant). '<' = one read or none on drug, '>' = one read or none on a drug-free plate. Shares are relative, so most strains fall below 1 when a few take over. Listed are strains with at least 15 reads on both drug-free plates, and hits; most hits rest on fewer reference reads. Replicate rank correlation about 0.5. Edits are read from barcodes.
B1: fabD V255P (protein)
chain: MTQFAFVFPGQGSQTVGMLADMAASYPIVEETFAEASAALGYDLWALTQQGPAEELNKTWQTQPALLTASVALYRVWQQQGGKAPAMMAGHSLGEYSALVCAGVIDFADAVRLVEMRGKFMQEAVPEGTGAMAAIIGLDDASIAKACEEAAEGQVVSPVNFNSPGQVVIAGHKEAVERAGAACKAAGAKRALPLPVSVPSHCALMKPAADKLAVELAKITFNAPTVPVVNNVDVKCETNGDAIRDALVRQLYNPPQWTKSVEYMAAQGVEHLYEVGPGKVLTGLTKRIVDTLTASALNEPSAMAAALEL
B2: fabG V69Q (protein)
chain: MNFEGKIALVTGASRGIGRAIAETLAARGAKVIGTATSENGAQAISDYLGANGKGLMLNVTDPASIESQLEKIRAEFGEVDILVNNAGITRDNLLMRMKDEEWNDIIETNLSSVFRLSKAVMRAMMKKRHGRIITIGSVVGTMGNGGQANYAAAKAGLIGFSKSLAREVASRGITVNVVAPGFIETDMTRALSDDQRAGILAQVPAGRLGGAQEIANAVAFLASDEAAYITGETLHVNGGMYMV
B3: argA L59W (protein)
chain: MVKERKTELVEGFRHSVPYINTHRGKTFVIMLGGEAIEHENFSSIVNDIGLLHSLGIRWVVVYGARPQIDANLAAHHHEPLYHKNIRVTDAKTLELVKQAAGTLQLDITARLSMSLNNTPLQGAHINVVSGNFIIAQPLGVDDGVDYCHSGRIRRIDEDAIHRQLDSGAIVLMGPVAVSVTGESFNLTSEEIATQLAIKLKAEKMIGFCSSQGVTNDDGDIVSELFPNEAQARVEAQEEKGDYNSGTVRFLRGAVKACRSGVRRCHLISYQEDGALLQELFSRDGIGTQIVMESAEQIRRATINDIGGILELIRPLEQQGILVRRSREQLEMEIDKFTIIQRDNTTIACAALYPFPEEKIGEMACVAVHPDYRSSSRGEVLLERIAAQAKQSGLSKLFVLTTRSIHWFQERGFTPVDIDLLPESKKQLYNYQRKSKVLMADLG
B4: argA L59Q (protein)
chain: B3 chain with W59Q
B5: fabG I134A (protein)
chain: B2 chain with Q69V, I134A
B6: fabG V179A (protein)
chain: B2 chain with Q69V, V179A
B7: argA L59P (protein)
chain: B3 chain with W59P
B8: accA V196Q (protein)
chain: MSLNFLDFEQPIAELEAKIDSLTAVSRQDEKLDINIDEEVHRLREKSVELTRKIFADLGAWQIAQLARHPQRPYTLDYVRLAFDEFDELAGDRAYADDKAIVGGIARLDGRPVMIIGHQKGRETKEKIRRNFGMPAPEGYRKALRLMQMAERFKMPIITFIDTPGAYPGVGAEERGQSEAIARNLREMSRLGVPVQCTVIGEGGSGGALAIGVGDKVNMLQYSTYSVISPEGCASILWKSADKAPLAAEAMGIIAPRLKELKLIDSIIPEPLGGAHRNPEAMAASLKAQLLADLADLDVLSTEDLKNRRYQRLMSYGYA
B9: fabG L222Q (protein)
chain: B2 chain with Q69V, L222Q
B10: argA M173A (protein)
chain: B3 chain with W59L, M173A
B11: argA M173W (protein)
chain: B3 chain with W59L, M173W
B12: fabI L10A (protein)
chain: MGFLSGKRIAVTGVASKLSIAYGIAQAMHREGAELAFTYQNDKLKGRVEEFAAQLGSDIVLQCDVAEDASIDTMFAELGKVWPKFDGFVHSIGFAPGDQLDGDYVNAVTREGFKIAHDISSYSFVAMAKACRSMLNPGSALLTLSYLGAERAIPNYNVMGLAKASLEANVRYMANAMGPEGVRVNAISAGPIRTLAASGIKDFRKMLAHCEAVTPIRRTVTIEDVGNSAAFLCSDLSAGISGEVVHVDGGFSIAAMNELELK
B13: argA M173Q (protein)
chain: B3 chain with W59L, M173Q
B14: fabI I24A (protein)
chain: B12 chain with A10L, I24A

Target: Escherichia coli (laboratory strain)
Test: barcode share on antibiotic plates over drug-free plates; higher = less susceptible
Settings: antibiotic: carbenicillin; 2× MIC (3.1 µg/mL)
Method: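 A pool of E. coli strains, each edited to carry one amino-acid change in an essential protein, was grown for 48 h on minimal glucose agar with or without antibiotic; strain barcodes were sequenced; mean of two replicates.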

Protein | fold change of barcode share
B1 | 0.694 ± 0.74
B2 | 0.319 ± 0.17
B3 | 0.339 ± 0.027
B4 | 0.312 ± 0.069
B5 | 0.415 ± 0.21
B6 | 0.588 ± 0.2
B7 | 0.254 ± 0.051
B8 | 0.353 ± 0.12
B9 | 0.181 ± 0.074
B10 | 0.448 ± 0.15
B11 | > 23.8 [active]
B12 | 0.434 ± 0.3
B13 | 0.355 ± 0.0081
B14 | 0.37 ± 0.1

Same assay, conditions: antibiotic: gentamicin; 2× MIC (MIC 0.45 µg/mL)

Protein | fold change of barcode share
B1 | < 0.00332
B3 | 0.0091 ± 0.00028
B4 | 0.00927 ± 0.0035
B6 | 0.171 ± 0.21
B7 | 0.00757 ± 0.0056
B8 | < 0.00258
B9 | < 0.0181
B10 | 0.00921 ± 0.0043
B13 | 0.0112 ± 0.012
B14 | 0.00375 ± 0.0015

Source: the supplement of paper PMC11876631
